In PubChem BioAssay AID686978 (National Center for Advancing Translational Sciences (NCATS), 2013):
The campaign covered roughly 420,000 compounds. About 64,000 (15%) were called active. Inconclusive results, whose numbers are uncertain, are shown with a selection of clear calls. Calls follow the shape of the dose curve; as a rule, active = well fitted inhibition curve with a large enough effect; inconclusive = small, poorly fitted or top-dose-only effect; inactive = flat fitted curve, though single readings scatter. Potencies of inconclusive entries are left out as doubtful fits.

Assay: qHTS for Inhibitors of human tyrosyl-DNA phosphodiesterase 1 (TDP1): qHTS in cells in absence of CPT; also: nearly all actives have a fitted effect of over 55% in size
Conditions: DT40 Tdp1-/- hTDP1 cells, no CPT, ATP luminescence, 48 h; activity change, negative = growth inhibition: at 46.2 µM (top of the series) unless noted
In short: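 Chicken DT40 Tdp1-/- cells complemented with human TDP1, screened without camptothecin (DMSO vehicle only), 400 cells/well. Compounds pin-transferred, cells incubated at 37 °C for at least 48 hr. Growth read as ATP-dependent luminescence (CellTiter-Glo, 30 min at RT).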
% is scaled to controls: 0 for no effect and ±100 for the full control effect; potency is read from the fitted curve at half-maximal effect; tags tell the direction and shape of the fitted curve.

Structure (SMILES) | Potency | activity change, negative = growth inhibition
Cc1cc(-n2nc(C)cc2C)n2nc(C)c(-c3ccccc3)c2n1 | inactive | 
O=C1OC(CN(Cc2ccccc2)Cc2ccccc2)CN1N=Cc1ccc([N+](=O)[O-])o1 (stereo not drawn) | active: 9.2 µM | 
CS(=O)(=O)c1cccc(NC(=O)C2CC2)c1 | inactive | 
O=C(CSc1nccn(-c2ccc(Br)cc2)c1=O)NCc1ccccc1 | inconclusive [inhibitor, partial curve] | 
CCc1ccc(C(=O)c2cn(CC(=O)Nc3ccc(Cl)cc3)c3cc4c(cc3c2=O)OCO4)cc1 | active: 16.4 µM | 
CCOc1ccc(CNC(=O)c2cccc(NC(=O)N3CCSc4ncccc43)c2)cc1OC | active: 16.4 µM | 
O=C(CCN1C(=O)/C(=C\c2ccccc2)SC1=S)N1CCCCC1 | active: 10.3 µM | 
N/C(=N\OC(=O)c1cc(-c2ccccc2)nc2ccccc12)c1ccncc1 |  | inconclusive: -33.9% [inhibitor]
Cc1cc(C)n(-c2ccc(C(=O)Nc3cccc(S(=O)(=O)N(C)C)c3)cc2)n1 | active: 1.64 µM | 
CC(C)C(=O)Nc1nnc2n1CCS2 | inactive | 
O=C(NC1CCCC1)C1c2ccccc2OCC(=O)N1C1CC1 (stereo not drawn) | inactive | 
CCC(Cn1nnc2ccccc2c1=O)NC(=O)Nc1cc(C)cc(C)c1 (stereo not drawn) | inconclusive [inhibitor, single point] | 
CCCCC1=CC2=CC(=O)C(C)(OC(=O)c3cccs3)C(=O)C2=CO1 (stereo not drawn) | inactive | 
Cc1cc(C)c2c(n1)sc1c(N3CCCCC3)ncnc12 | inconclusive [inhibitor, single point] | 
Cc1cc2c(n1-c1ccc(C(=O)NCCc3ccc(Cl)cc3)cc1)CCCC2 | active: 25.9 µM | 
Cc1csc(NC(=O)CSc2ccc3nnc(CCNS(=O)(=O)c4ccccc4)n3n2)n1 |  | inconclusive: -32.9% [inhibitor]
Cc1ccc2nccc(C(=O)N3CCCC(N4CCN(c5ccc(F)cc5)CC4)C3)c2c1 (stereo not drawn) | inconclusive [inhibitor, single point] | 
CC[C@]12c3[nH]c4cc(-c5ccco5)ccc4c3CCN1C(=O)[C@@H](CC(=O)NC/C=C(\C)CCC=C(C)C)C[C@@H]2C(=O)N1CCN(C(=O)C2CC2)CC1 | inconclusive [inhibitor, single point] | 
O=C(OCc1ccccc1)N1CCC2CC1c1cc(N3CCN(S(=O)(=O)c4cc(Cl)cc(Cl)c4)CC3)ccc12 (stereo not drawn) | inconclusive [inhibitor, partial curve] | 
O=C(c1cc(-c2ccc(F)cc2)nc2ccccc12)N1CCC1 | inconclusive [inhibitor, single point] | 
Cc1nc(Nc2ccc(O)cc2)c2c3c(sc2n1)CCCC3 | inconclusive [inhibitor, single point] | 
Cc1ccc(S(=O)(=O)n2nc(C)c(S(=O)(=O)N3CCCCCC3)c2C)cc1 | inactive | 
Cc1ccc(C)c(CSc2nnc3[nH]c(=O)cc(C)n23)c1 | inactive | 
Oc1ccc(C[C@@H]2CNCCN2CCc2cccc3ccccc23)cc1 | active: 20.6 µM | 
Cc1ccccc1OCc1ccc(C(=O)N2CCOCC2)o1 | inactive | 

Structure (SMILES) | Potency | activity change, negative = growth inhibition
COc1cc(CNCCc2ccccc2)ccc1OCC(N)=O | inactive | 
CC(C)OC(=O)c1ccc(NC(=O)c2ccco2)cc1 | active: 23.1 µM | 
COc1ccc(CNC(=O)[C@H](Cc2ccccc2)NC(=O)CC[C@H]2O[C@@H](n3ccc(=O)[nH]c3=O)[C@H](O)[C@@H]2O)cc1 | inactive | 
FC(F)(F)c1ccccc1Cc1c(-c2cccc(Br)c2)nc2ccc(Cl)cn12 | inconclusive [inhibitor, single point] | 
Cc1cccc(NC(=O)CN2CCN(C(=O)CN3C(=O)NC4(CC(C)CC(C)(C)C4)C3=O)CC2)c1C (stereo not drawn) | active: 4.11 µM | 
CCCCC1(O)CC(C(F)(F)F)=NN1C(=O)COc1ccccc1 (stereo not drawn) |  | inconclusive: -36.2% [inhibitor]
COc1ccc2c(C)cc(=O)[nH]c2c1 | inconclusive [inhibitor, single point] | 
COc1ccc(N2CCN(c3oc(Cc4cccc5ccccc45)nc3C#N)CC2)cc1 | active: 6.51 µM | 
CCC1=NN2C(=N)/C(=C\c3cccn3-c3c(C)cccc3C)C(=O)N=C2S1 | active: 3.66 µM | 
CC1CCCN(C(=O)c2ccc(NS(=O)(=O)c3cccc([N+](=O)[O-])c3)cc2)C1 (stereo not drawn) | inconclusive [inhibitor, single point] | 
Cc1ccc(-n2nnnc2SCc2nc3sc(C)c(C)c3c(=O)[nH]2)cc1 | inconclusive [inhibitor, single point] | 
Cc1onc(-c2ccccc2)c1C(=O)OCC(=O)NC(C)c1ccc(Cl)cc1 (stereo not drawn) | inactive | 
COc1ccc(C2C(C(=O)Nc3ccccc3)=C(C)Nc3c(C(=O)Nc4ccccc4)cnn32)cc1 (stereo not drawn) | inconclusive [inhibitor, single point] | 
O=C(NCc1ccccc1)C1=C[C@H](C2CC2)C[C@H](OCc2ccc(CO)cc2)O1 | inconclusive [inhibitor, single point] | 
Cc1ccccc1CNC(=O)c1csc([C@@H]2O[C@H](CO)[C@@H](O)[C@H]2O)n1 | inconclusive [inhibitor, single point] | 
COc1ccc(S(=O)(=O)N(C)CC(=O)O)c2ccccc12 | inactive | 
Oc1ccc(/C=C/c2cnccn2)cc1 | inconclusive [inhibitor, single point] | 
Cc1ccc(S(=O)(=O)N2CCCOC2CNC(=O)C(=O)NC2CCCCC2)cc1 (stereo not drawn) | inconclusive [inhibitor, single point] | 
COc1cc(C2C(C(C)=O)=C(O)C(=O)N2c2ccc(C)cc2)ccc1O (stereo not drawn) | inactive | 
N#CC1=C(N)OC2=C(C(=O)CCC2)C1c1ccccc1 (stereo not drawn) | inactive | 
COc1ccc(-c2ccc3c(c2)c(C#Cc2ccsc2)c(-c2cc(OC)cc(OC)c2)n3C)cc1 | inconclusive [inhibitor, single point] | 
Cc1c(OCC(=O)N2C[C@H]3C[C@@H](C2)c2cccc(=O)n2C3)ccc2c3c(c(=O)oc12)CCC3 | inconclusive [inhibitor, single point] | 
CCC(=O)c1cn([C@@H](CCC(OC)OC)CC(=O)OC(C)(C)C)cc1CC | inactive | 
CCCn1c(=O)c2ccccc2n2c(SCCOc3ccc(C)cc3)nnc12 | inconclusive [inhibitor, single point] | 
Cc1ccc(NC(=O)COC(=O)/C=C/c2cccs2)cc1 | inconclusive [inhibitor, partial curve] | 

Structure (SMILES) | Potency | activity change, negative = growth inhibition
Cc1ccc(OCC(=O)Nc2ccccc2-c2ccccc2)cc1 | inconclusive [inhibitor, partial curve, poor fit] | 
Cc1ccc(N2C(=O)C(NC(=O)c3ccccc3)(C(F)(F)F)C3=C2CC(C)(C)CC3=O)cc1 (stereo not drawn) | inconclusive [inhibitor, single point] | 
CCN(CC)S(=O)(=O)c1ccc(N2CCCCC2)c(NC(=O)/C(C#N)=C/c2ccc(OC)cc2)c1 | active: 16.4 µM | 
COc1ccc(CC2(CO)CCN(CC3=Cc4cc(Cl)ccc4OC3)CC2)cc1 | active: 6.51 µM | 
COc1cccc(Nc2ncc3nc(CCc4ccccc4)c(=O)n(C[C@H]4CCCO4)c3n2)c1 | inconclusive [inhibitor, single point] | 
COCCCNc1nc(NCc2ccccc2OC)c2cnn(C)c2n1 | active: 23.1 µM | 
CSc1ccc(CNC(=O)C2(C)CCN2C(C)C)cc1 (stereo not drawn) | inactive | 
Cc1ccc(NC(=O)C2(c3cccs3)CCOCC2)cc1Cl | inconclusive [inhibitor, partial curve] | 
Cc1ccc(C(=O)Nc2ccc(NC(=O)c3cccs3)cc2)cc1[N+](=O)[O-] | inactive | 
COc1ccc(Br)cc1C1C(C(=O)Nc2ccc(C)cc2C)=C(C)Nc2ncnn21 (stereo not drawn) | inactive | 
Cn1c(=O)c2c(nc(NCc3cccnc3)n2Cc2cccc(C(F)(F)F)c2)n(C)c1=O | active: 7.31 µM | 
CCOc1cc(/C=C(\C#N)C(=O)Nc2cccc(C(=O)O)c2)cc(Br)c1OC(=O)c1ccc(OC)cc1 |  | inconclusive: -34.8% [inhibitor]
COc1ccc(CC(=O)NCc2nnc(SCC(=O)Nc3nccs3)n2C)cc1 | inactive | 
O=C(COC(=O)C1=NN(c2ccccc2)C(=O)CC1)NCc1ccccc1Cl | inactive | 
COC(=O)c1sc(N)c(C(=O)OC)c1COC(=O)[C@@H](NS(=O)(=O)c1cccc(Cl)c1)C(C)C | active: 18.4 µM | 
O=C1NC(=Nc2cccc(O)c2)S/C1=C\c1cccc([N+](=O)[O-])c1 | inconclusive [inhibitor, single point] | 
CCCCCCN1C[C@H](O)[C@@H](n2cc(C3CC3)nn2)C[C@@H]1c1ccc(C)cc1 | active: 25.9 µM | 
COc1ccc(NC(=O)Cn2c(=O)n(-c3cc(C)cc(C)c3)c(=O)c3oc4ccccc4c32)cc1OC | active: 8.2 µM | 
Cc1ccc2c(CNCCc3ccccc3)c(C(=O)O)n(Cc3ccccc3C)c2c1 | inconclusive [inhibitor, single point] | 
CCc1ccc(OC2(C)CCN(Cc3ccc(SC)cc3)C2)cc1 (stereo not drawn) | inconclusive [inhibitor, single point] | 
COc1ccc2oc3cc(Cl)ccc3c(=O)c2c1 | inactive | 
CC(=O)Nc1ccc(-n2c(C)ccc2C)cc1 | inconclusive [inhibitor, single point] | 
O=C(NCCc1ccccc1)c1nn(-c2ccccc2F)nc1CO | inactive | 
